Assay results published in PubChem BioAssay AID1963576 (National Center for Advancing Translational Sciences (NCATS), 2024).
The whole screen tested about 46,000 compounds, of which about 60 (0.1%) were called active. About 3% were inconclusive and are not listed. Calls follow the shape of the dose curve; as a rule, active = well fitted inhibition curve with a large enough effect; inconclusive = small, poorly fitted or top-dose-only effect; inactive = no such curve, though single readings can be large or run the other way. The list shows a part of the results.

Assay: Primary qHTS assay for Inhibitors of ovarian cancer metastasis using an organotypic tumor microenvironment (TME) model. Also: nearly all actives have a fitted effect of over 65% in size.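 As to activity change, negative = inhibition: plate controls were DMSO wells for no effect and tomatine positive control wells for full effect.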
Details: SKOV3ip1-GFP adhesion/invasion on 3D omental model, fluorescence; series mostly up to 45.8 µM; activity change, negative = inhibition: at the top concentration
Outline: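 A 3D layer of primary human omental fibroblasts, mesothelial cells, fibronectin and collagen I, grown 48 hr, received SKOV3ip1-GFP cells in serum-free medium plus compounds at 0.36-46 umol/L. After 2 hr RT and 16 hr 37 C, fixed adherent GFP cells were counted; normalized to DMSO and tomatine.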

Activity change, negative = inhibition, inactive:
COc1ccc(OC)c2sc(N3CCN(C(=O)CCS(=O)(=O)c4ccc(F)cc4)CC3)nc12 4.78%, Cc1cc(Cl)ccc1NC(=O)Cn1nnc2sc(-c3ccccc3)cc2c1=O 2.4%, CC(C)c1ccc(Nc2ncnc3onc(-c4ccc(F)cc4)c23)cc1 3.25%, COc1cc(NC(=O)N2CCC(CN3CCOCC3)CC2)cc(OC)c1OC -7.24%, CCCn1c2ccccc2c2cnn(CC(=O)N3CCCC(C)C3)c(=O)c21 (stereo not given) 12.6%, CCCCn1nc(NC(=O)c2cccc(Cl)c2)c2cc3cccc(C)c3nc21 4.87%, COc1cccc(N2CCN(C(=O)c3cc4c(=O)oc5ccc(C)cc5c4s3)CC2)c1 1.98%, O=C(NCCCc1nc2ccccc2n1Cc1ccc(Cl)cc1)C1CCCCC1 -4.18%, Cc1ccc(CNC(=O)C2CCN(S(=O)(=O)c3cn(C)cn3)CC2)cc1 -16.8%, CCc1ccccc1-n1c(C)nc2cc(C(=O)NCCc3ccc(Cl)cc3)ccc21 -10.3%, CC(C)OCCCNC(=O)CN1C(=O)COc2ccc(S(=O)(=O)N3CCCCCC3)cc21 -0.148%, CC(C)N(Cc1ccccc1)S(=O)(=O)c1ccc(-c2cc(C(F)(F)F)on2)s1 -7.36%, CCCS(=O)(=O)N1CC(=O)N(c2cccc(Cl)c2C)C(C)(C(=O)NC2CCCC2)C1 (stereo not given) 0.447%, Cc1cc(-c2ccc(C)c(S(=O)(=O)NCc3cccc(Br)c3)c2)on1 2.65%, O=C(O)CCNc1cc(N2CCc3ccccc3CC2)nc(-c2ccccn2)n1 -3.79%, COc1cccc(CNC(=O)Cn2ncn3nc(-c4cccs4)cc3c2=O)c1OC -16.4%, COc1ccc(-n2nc(C(=O)N3CCN(c4cccc(C)c4C)CC3)c3c4ccccc4n(C)c3c2=O)cc1Cl -9.88%, Cc1ccc2onc(CC(=O)N3CCN(c4cc(Cl)ccc4C)CC3)c2c1 -23.3%, Fc1ccc(-c2nn(-c3ccccc3Cl)c3c2cnc2ccccc23)cc1 10.2%, CC(NC(=O)c1ccc2c(c1)CCN2S(=O)(=O)c1ccccc1)c1ccccc1 (stereo not given) 0.49%, COc1ccc(CNC(=O)c2nc(SCc3ccccc3F)ncc2Cl)cc1 -13.3%, CCC(=O)N1CCCc2cc(S(=O)(=O)N3CCC(C(=O)NC4CCCCC4)CC3)ccc21 -17.7%, O=C(c1ccc2c(c1)N(Cc1ccc(F)cc1)C(=O)c1ccccc1S2(=O)=O)N1CCCC1 7.77%, COc1ccccc1NC(=O)c1oc2ccccc2c1NC(=O)c1cccc(OC)c1OC -16.2%, CCOc1ccc(-c2cc(C(=O)Oc3ccc(C#N)cc3)no2)cc1 -8.16%, Cc1cccc(/C=C(\C#N)c2nc3ccccc3c(=O)[nH]2)c1 10.6%, CCOC(=O)C1CCC(CN(Cc2ccccc2)S(=O)(=O)c2ccc(Br)cc2)CC1 (stereo not given) -2.1%, CCCN1Cc2cccc(C(=O)Nc3ccc(C(C)=O)cc3)c2C1=O -5.73%, O=C(CCS(=O)(=O)c1ccccc1)N(Cc1cccnc1)c1nc2ccc(Cl)cc2s1 5.52%, COc1ccc(N2CCN(CCCNC(=O)c3cc(Nc4ccc(OC)cc4OC)nc4ccccc34)CC2)cc1 -4.03%, CNC(=O)[C@H](CC1=CN=C2C=CCC=C12)NC(=O)[C@@H](CC(=O)NO)CC(C)C -6.24%, Cc1cccc(-n2c(=O)c3c(c4cc(C)ccc4n3C)n(CC(=O)N3CCCC3)c2=O)c1 -23.1%, CC=CC1=C(C(=O)O)N2C(=O)[C@H](NC(=O)[C@H](N)c3ccc(O)cc3)[C@@H]2SC1 14.5%, Cc1c(C(=O)Nc2cccc(Cl)c2)sc2nc3n(c(=O)c12)N=C(c1cccc(Br)c1)CS3 -5.66%, Cc1cccc(C)c1OCCCn1c(CCNC(=O)C2CCCCC2)nc2ccccc21 10.6%, Cc1ccc(NC(=O)Cn2c(=O)n(Cc3nc(C)no3)c(=O)c3ccccc32)c(Cl)c1 -8.51%, Cc1c(CCC(=O)NCCc2ccc(Cl)cc2)c(=O)oc2c(C)c(O)ccc12 7.43%, CCc1ccc(-n2c(=O)c3c4c(sc3n(CC(=O)N3CCCCC3CC)c2=O)CCC4)cc1 (stereo not given) 8.62%, Cc1ccc(CNC(=O)c2ccc(NC(=O)N3CCSc4ncccc43)cc2)cc1 -9.05%, O=C(NCc1cccs1)c1ccc2c(=O)n3nc(Nc4ccccc4)sc3nc2c1 -8.54%, Cc1ccc2c(c1Br)C(O)(CC(=O)c1ccc(F)cc1)C(=O)N2 (stereo not given) 0.821%, O=C(NC1CC(=O)N(c2ccc(F)cc2)C1)c1ccc(S(=O)(=O)N2CCCCC2)cc1 (stereo not given) 3.88%, CCOC(=O)Cn1c(=O)n(CC2CCCO2)c2nc(-c3ccccc3OC)nc(C(N)=O)c21 (stereo not given) 1%, O=c1c2sc3ccccc3c2n(Cc2cccc(F)c2)c(=O)n1Cc1ccccc1 -18.5%, O=C(Cn1c(=O)n(Cc2nc(-c3ccccc3)no2)c(=O)c2ccccc21)Nc1cccc(C(F)(F)F)c1 -0.977%, O=C(c1ccc2c(c1)N(Cc1ccccc1F)C(=O)c1ccccc1S2(=O)=O)N1CCC(Cc2ccccc2)CC1 10.6%, COc1ccccc1CNC(=O)C1CCCN(S(=O)(=O)c2ccc3c(c2)oc(=O)n3C)C1 (stereo not given) -21.8%, Cc1c(Cl)cccc1NC(=O)CC1Oc2ccccc2NC1=O (stereo not given) 5.53%, CCOC(=O)c1ccc(N2C(=O)c3[nH]nc(-c4ccccc4)c3C2c2ccc(CC)cc2)cc1 (stereo not given) -8.12%, CCOc1ccccc1NC(=O)CN1C(=O)COc2ccc(S(=O)(=O)N3CCOCC3)cc21 -22.2%, CCOc1ccc(NCc2cccn2-c2nnc(N3CCC(C(=O)NCC(C)c4ccccc4)CC3)s2)cc1 (stereo not given) -17.9%, COc1ccc(Cn2c(CCC(=O)Nc3cc(OC)c(OC)c(OC)c3)nc3cccnc32)cc1 5.36%, O=C(CSc1nccn1Cc1ccccc1)NCc1ccco1 -2.96%, CCOC(=O)c1cc(-c2ccc(OC)cc2)n(CCC(=O)Nc2ccccc2OC)c1C -13.4%, CC1C(=O)Nc2ccc(S(=O)(=O)N3CCCCC3)cc2NC1=O (stereo not given) -23.5%, CCC(CC)C(=O)OCc1cc(=O)n2nc(C3CC3)sc2n1 2.23%, Cn1cc(-c2cc3n(n2)CCC(=O)N3CCCC(=O)NCc2ccc(Cl)cc2)c2ccccc21 -25.9%, O=C(CCCn1c(=O)c2cccn2c2ccccc21)Nc1cc(C(F)(F)F)ccc1Cl -22.7%, Cc1cc(C)n(C(C)CC(=O)Nc2cccc(C(F)(F)F)c2)n1 (stereo not given) -9.01%, CCN(CC)c1ccc(NC(=O)C2CCN(c3nnc(-n4cccc4)s3)CC2)c(C)c1 -16.4%, CCN(c1ccccc1)S(=O)(=O)c1ccc(NC(=O)c2nc(SC)ncc2Cl)cc1 -13.4%, COc1cc(/C=C(\C#N)C(=O)NCC2CCCO2)ccc1O (stereo not given) -1.84%, CCc1ccccc1NC(=O)CSc1nc(-c2cccc(Cl)c2)nc2c1Cc1c(CO)cnc(C)c1O2 -2.81%, CCOc1ccc(CN2CCc3nc(N4CCN(c5ccccc5OC)CC4)ncc3C2)cc1OC -2.27%, CC(C)(C)OC(=O)N1CCC(c2c(C(=O)NCc3cccc(Cl)c3)cnn2-c2ccc(F)cc2)CC1 -11.2%, O=C(Nc1cc(-c2nc3ccccc3o2)ccc1Cl)c1sc2c([N+](=O)[O-])cccc2c1Cl -1.74%, CCOC(=O)c1ccc(NC(=O)CC2C(=O)N(c3ccc(F)cc3)C(=O)N2Cc2cccnc2)cc1 (stereo not given) 6.41%, CC1CCN(C(=O)Cn2c(=O)n(CC3CCC(C(=O)NC(C)C)CC3)c(=O)c3sccc32)CC1 (stereo not given) 0.812%, O=C(NCCCN1CCCCC1)c1sc2ncccc2c1-n1cccc1 18.5%, COc1ccc(-n2c(-c3ccc(C)cc3)cc3c2CC(C)(C)CC3=O)cc1Cl -0.0638%, CCn1nc(C)c2c(-c3ccccc3)cc(=O)n(C(C)C(=O)NCCC(C)C)c21 (stereo not given) 1.64%, COc1ccc(S(=O)(=O)NCC(c2ccco2)S(=O)(=O)c2ccc(C)cc2)cc1F (stereo not given) 2.34%, CC(C)c1ccc(Cn2c(COc3ccccc3)nc3ccccc32)cc1 -0.836%

outcome, inactive:
COCCCNC(=O)CCc1c(C)nc2nc(-c3cc(OC)cc(OC)c3)nn2c1C, CCOCCCNC(=O)c1cnc2sc(N3CCCCC3)nn2c1=O, CCCCCn1c(CCNC(=O)c2ccc(F)cc2)nc2ccccc21, Cc1cc(C)cc(OCC(=O)N(Cc2cccs2)c2ccc(Cl)cc2)c1, COc1ccc(-n2c(C)c(C(C)=O)c3cc(OC(=O)COc4ccccc4)ccc32)cc1, CCC(Oc1ccccc1)C(=O)Nc1cc(-c2cccc(C)c2)nn1-c1ccccc1 (stereo not given), Cc1ccc(CNC(=O)Cc2c(C)c3c(cc(C)c4c(C)coc43)oc2=O)cc1, Fc1ccccc1Cc1cn2cc(-c3ccc(Cl)cc3)nc2s1, COc1ccccc1Cn1c(CNS(=O)(=O)c2ccc(C(C)C)cc2)nc2cccnc21, COc1ccc(/C=C/c2nc(C#N)c(NCc3ccc(F)cc3)o2)cc1OC, COc1cc(NC(=O)CCS(=O)(=O)c2ccc3c(c2)CC(=O)N3C)cc(OC)c1OC, Cc1ccccc1Nc1c(-c2cc(Br)ccc2F)nc2ccccn12, CCOc1ccc(N(CC)S(=O)(=O)N2CCCC(C(=O)Nc3ccc(C(C)=O)cc3)C2)cc1 (stereo not given), O=C(CN1C(=O)COc2ccccc21)NCCc1ccc(Cl)cc1, Cc1c(CNC2CCCCC2)c(C(=O)O)c(C)n1Cc1cccc(Cl)c1, CCc1ccc(NC(=O)CN2C(=O)C(c3ccc(Cl)cc3)=NC23CCCCC3)cc1, CCOc1ccccc1NC(=O)c1nc(SC(C)C)ncc1Cl, COc1ccc(-c2cc(C(=O)Nc3c(C(=O)c4ccc(C)cc4)oc4ccccc34)no2)cc1, CCOc1ccccc1C(=O)N(Cc1ccco1)Cc1ccco1, Cc1cccc2sc(N(Cc3cccnc3)C(=O)CCc3ccccc3)nc12, COc1ccc(-c2nc(SCC(=O)NC3CCCC3)c(-c3ccc(F)cc3)[nH]2)cc1, Cc1ccccc1C(=O)Nc1nnc(S(=O)(=O)N(C)Cc2ccccc2)s1
